# Measured values from PubChem BioAssay AID1460 (National Center for Advancing Translational Sciences (NCATS), 2008).
# Among all 270,000 compounds or so, about 5,800 (2.1%) were called active. Inconclusive results, whose numbers are uncertain, are shown with a selection of clear calls. Calls follow the shape of the dose curve; as a rule, active = well fitted inhibition curve with a large enough effect; inconclusive = small, poorly fitted or top-dose-only effect; inactive = flat fitted curve, though single readings scatter. A potency beside an inconclusive call is a rough fit, not a confirmed value.
# Target: Microtubule-associated protein tau (Homo sapiens) (UniProt P10636)
# Assay: qHTS for Inhibitors of Tau Fibril Formation, Thioflavin T Binding; also: nearly all actives have a fitted effect of over 55% in size
# Settings: recombinant tau K18 P301L (four-repeat tau fragment), heparin-induced fibrillization, ThT fluorescence; series mostly up to 57.4 µM; activity, negative = inhibition: at the top concentration
# In short: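 Heparin-induced (20 uM) aggregation of recombinant human K18 P301L tau, 15 uM unlabeled with 0.24 uM labeled, pH 7 acetate buffer, 6 hr at 37 C with compound. Fibrils quantified by 30 uM ThT fluorescence after 1 hr ambient incubation.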
# % is scaled to controls: 0 for no effect and ±100 for the full control effect; potency is read from the fitted curve at half-maximal effect; tags tell the direction and shape of the fitted curve.
# UniProt P10636, sequence (P10636 whole entry, looked up): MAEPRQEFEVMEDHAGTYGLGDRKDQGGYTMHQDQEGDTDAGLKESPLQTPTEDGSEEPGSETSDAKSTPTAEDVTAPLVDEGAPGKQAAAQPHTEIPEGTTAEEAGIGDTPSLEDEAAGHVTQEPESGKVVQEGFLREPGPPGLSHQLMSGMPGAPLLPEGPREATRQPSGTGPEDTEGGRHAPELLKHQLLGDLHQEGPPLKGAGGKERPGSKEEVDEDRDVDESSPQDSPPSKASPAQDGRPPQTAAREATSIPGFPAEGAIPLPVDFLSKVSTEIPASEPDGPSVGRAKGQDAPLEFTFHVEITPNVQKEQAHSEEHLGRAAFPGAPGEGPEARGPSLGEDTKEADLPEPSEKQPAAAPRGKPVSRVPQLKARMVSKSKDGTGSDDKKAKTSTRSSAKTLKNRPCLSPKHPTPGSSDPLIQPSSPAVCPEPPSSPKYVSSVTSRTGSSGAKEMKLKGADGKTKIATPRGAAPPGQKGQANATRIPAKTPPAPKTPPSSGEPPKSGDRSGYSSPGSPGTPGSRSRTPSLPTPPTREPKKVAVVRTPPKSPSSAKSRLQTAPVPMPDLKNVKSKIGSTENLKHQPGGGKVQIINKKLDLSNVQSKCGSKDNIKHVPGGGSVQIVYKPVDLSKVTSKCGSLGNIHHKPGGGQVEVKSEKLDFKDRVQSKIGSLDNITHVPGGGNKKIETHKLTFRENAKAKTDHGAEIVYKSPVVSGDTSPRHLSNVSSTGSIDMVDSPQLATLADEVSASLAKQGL
SMILES,Potency,"activity, negative = inhibition"
CCCC1=Nc2cc(C(=O)NCCCOCC)ccc2Sc2ccccc21,"inconclusive: 15.8 µM [inhibitor, single point]",
Cc1ccccc1C(=O)n1nc(-c2cccnc2)nc1NCc1ccc(F)cc1,"inconclusive: 6.31 µM [inhibitor, partial curve]",
CCN(CCCNC(=O)Cn1ncc2c3ccccc3n(C)c2c1=O)c1cccc(C)c1,"inconclusive: 8.91 µM [inhibitor, full curve]",
O=C(N/N=C/c1ccc([N+](=O)[O-])o1)c1cccc(S(=O)(=O)N2CCOCC2)c1,"inconclusive: 31.6 µM [inhibitor, single point]",
CCCOc1ccc(C(=O)NCCc2ccccc2)cc1,"inconclusive: 10 µM [inhibitor, partial curve]",
CCCN1CNC(=S)N(c2ccccc2OCC)C1,,inactive: 5.22%
Cc1nonc1OCCCNc1ccc([N+](=O)[O-])cc1Cl,"inconclusive: 6.31 µM [inhibitor, full curve, poor fit]",
CCOC(=O)c1c(C)nn(Cc2cccc(Cl)c2)c1N,,inactive: -10%
Fc1ccc(CSc2nnc(-c3cc4c(s3)-c3ccccc3CC4)o2)cc1,"inconclusive: 7.08 µM [inhibitor, partial curve]",
O=c1[nH]c2ccccc2c(O)c1-c1ccccc1,"inconclusive: 44.7 µM [activator, single point]",
Cc1ccnc(NC(c2cccnc2)c2ccc3cccnc3c2O)c1 (stereo not given),"inconclusive: 15.8 µM [inhibitor, partial curve]",
COc1cc(/C=N/OCC(=O)NC23CC4CC(CC(C4)C2)C3)ccc1OCc1ccccc1,"inconclusive: 22.4 µM [inhibitor, single point]",
COc1ccccc1C(=O)Nc1ccc(C(=O)/C=C/c2cccs2)cc1,"inconclusive: 5.01 µM [inhibitor, full curve]",
Cc1cc(/C=C(/C#N)c2nc3ccccc3[nH]2)c(C)n1-c1cc(C(=O)O)cc(C(=O)O)c1,"inconclusive: 20 µM [inhibitor, partial curve, poor fit]",
Nc1ccc(N=Nc2ccc(N)cc2)cc1,active: 11.2 µM,
CC(=C\c1ccccc1)/C=C1/SC(=S)N(C(C(=O)O)C(C)C)C1=O (stereo not given),active: 25.1 µM,
N#Cc1c(NC(=O)c2ccc(Cn3cc(Br)cn3)o2)sc2c1CCCCC2,"inconclusive: 11.2 µM [inhibitor, partial curve]",
O=c1c2c(nc3n1CCCCC3)sc1c(O)c(Br)ccc12,"inconclusive: 22.4 µM [inhibitor, partial curve]",
Cc1cccc(Nc2nc(-c3ccc4c(c3)OCCO4)cs2)c1,active: 7.08 µM,
CCOC(=O)NC1(Nc2ccc(Cl)cn2)Oc2ccccc2O1,"inconclusive: 11.2 µM [inhibitor, partial curve]",
COc1cccc(N2CCN(c3ncnc4c3[nH]c3ccc(F)cc34)CC2C)c1 (stereo not given),"inconclusive: 11.2 µM [inhibitor, partial curve]",
CCN(CC(=O)NC(=O)NCc1ccco1)Cc1nc2ccccc2c(=O)[nH]1,"inconclusive: 25.1 µM [inhibitor, single point]",
CC(=S)/C=C1\Sc2ccccc2N1C,active: 14.1 µM,
CCn1nnnc1-c1ccc(OC)c(S(=O)(=O)NCc2ccccc2)c1,,inactive: -6.69%

SMILES,Potency,"activity, negative = inhibition"
COc1cc(C(C(=O)NC2CCCCC2)N(Cc2ccco2)C(=O)c2cnccn2)cc(OC)c1OC (stereo not given),,inactive: -2.95%
CCC(=O)Nc1ccccc1C(=O)OCc1cc(=O)n2cc(C)sc2n1,"inconclusive: 2.24 µM [inhibitor, full curve]",
Cc1cc(Cl)n2ncc(-c3ccccc3)c2n1,"inconclusive: 7.94 µM [inhibitor, full curve]",
COC(=O)c1scc(-c2ccc(C)cc2)c1S(=O)(=O)N1CCN(c2ccccc2F)CC1,,inactive: -9.68%
O=C1/C(=C\c2ccc3c(c2)OCO3)CCC/C1=C/c1ccc2c(c1)OCO2,active: 4.47 µM,
Cc1cccc(N2CCN(c3ncnc4c3cnn4-c3ccc(Cl)cc3)CC2C)c1 (stereo not given),"inconclusive: 14.1 µM [inhibitor, partial curve, poor fit]",
Cc1ccc(Cl)c(OCC(=O)Nc2ccc3c(c2)OCCO3)c1,"inconclusive: 10 µM [inhibitor, partial curve]",
C=C1C(=O)O[C@H]2C1CC[C@@](C)(O)C13C=CC(C)(C21)C1(C3)C(=O)O[C@@H]2C3C(C)=CCC3[C@](C)(O)C[C@H](OC(C)=O)C21 (stereo not given in full),"inconclusive: 20 µM [inhibitor, single point]",
COc1ccc(/C=C/C=C2\N=C(SC)SC2=O)cc1,active: 3.98 µM,
Cc1cc(-c2csc(N)n2)c(C)n1Cc1ccccc1,"inconclusive: 11.2 µM [inhibitor, partial curve]",
O=C(CNc1ccc(Cl)cc1)c1ccc(Br)cc1,,inactive: -15%
CCOC(=O)c1cnn(-c2cc(Oc3ccccc3C)ncn2)c1N,"inconclusive: 3.98 µM [inhibitor, full curve]",
COc1ccc(OS(=O)(=O)c2c(C)noc2C)cc1,"inconclusive: 12.6 µM [inhibitor, partial curve]",
O=C(NCCNc1ccc([N+](=O)[O-])cc1)c1ccco1,"inconclusive: 22.4 µM [inhibitor, partial curve]",
CC(=O)c1cccc(N(CC(=O)NCC2CCCO2)C(=O)CCC(=O)Nc2cc(C)on2)c1 (stereo not given),,inactive: -15.2%
Cc1onc(-c2ccccc2)c1-c1nc2cc(Cl)ccc2c(=O)o1,"inconclusive: 3.98 µM [inhibitor, partial curve, poor fit]",
COc1ccc(Cl)cc1C(=O)NCCc1ccc(S(=O)(=O)NC(=O)NC2CCCCC2)cc1,"inconclusive: 39.8 µM [inhibitor, single point]",
c1ccc(-c2nnc(-c3ccccn3)nc2NC2CCCCC2)cc1,,inactive: -15.3%
C/C(=N\NC(=S)Nc1cc(S(=O)(=O)N2CCOCC2)ccc1Cl)c1ccc(N2CCOCC2)cc1,"inconclusive: 7.08 µM [inhibitor, partial curve]",
O=[N+]([O-])C(/C=C(/Cl)[N+](=O)[O-])=C(N1CCCCC1)N1CCCCC1,"inconclusive: 39.8 µM [inhibitor, single point]",
CCN1CCOC(=O)C1CC(=O)Nc1cc(Cl)ccc1C (stereo not given),"inconclusive: 10 µM [inhibitor, partial curve]",
Cc1[nH]c2ccccc2c1/C=N/Nc1ccccc1[N+](=O)[O-],active: 1.78 µM,
O=C(Nc1ccc(Cl)cc1C(F)(F)F)C(Sc1nnc(-c2cccs2)o1)c1ccccc1 (stereo not given),,inactive: 4.71%
CCCC(=O)Nc1nnc(SCc2cc(=O)n3cccc(C)c3n2)s1,,inactive: -3.68%

SMILES,Potency,"activity, negative = inhibition"
O=C(NCC1COc2ccccc2O1)C1CCN(S(=O)(=O)c2cccc3nsnc23)CC1 (stereo not given),,inactive: -12.8%
CCCc1cc(-c2n[nH]c(=S)n2CC)cs1,"inconclusive: 7.94 µM [inhibitor, partial curve]",
O=C(NCCc1ccc2c(c1)OCCO2)c1ccc([N+](=O)[O-])cc1Cl,"inconclusive: 35.5 µM [inhibitor, single point]",
NS(=O)(=O)c1ccc(N/N=C/c2ccc(C(=O)O)cc2)c([N+](=O)[O-])c1,active: 11.2 µM,
CN(C)c1ccc(NC(=O)CN2CCN(S(=O)(=O)c3cc(Cl)ccc3Cl)CC2)cc1,"inconclusive: 44.7 µM [inhibitor, single point]",
Cc1ccccc1NC(=S)NCc1ccc2c(c1)cc(C)n2C,"inconclusive: 10 µM [inhibitor, partial curve, poor fit]",
COc1ccc(CNC(=O)Cn2ncc3c(=O)oc4ccc(C)cc4c32)c(OC)c1,,inactive: 0.589%
COC(=O)C(Cc1ccc(OC(=O)c2ccc(C(F)(F)F)cc2)cc1)N1Cc2ccccc2C1=O (stereo not given),"inconclusive: 39.8 µM [inhibitor, partial curve]",
COc1ccccc1CCNC(=O)C(=O)NCC1OCCN1S(=O)(=O)c1ccc(Br)cc1 (stereo not given),,inactive: -13.7%
O=C(CCCCn1c(=O)c2ccccc2n(Cc2cccc(Cl)c2)c1=O)NCc1ccc2c(c1)OCO2,,inactive: -1.53%
COc1cccc(NC2c3ccccc3C(=O)N2Cc2ccco2)c1 (stereo not given),,inactive: -17.2%
O=C(NN=C1CCCCCCC1)c1ccc2ccccc2n1,"inconclusive: 28.2 µM [inhibitor, single point]",
O=C(NCc1cccnc1)c1cc(Sc2ccccc2Cl)nc2ccccc12,,inactive: -9.8%
CC(C)n1c(-c2ccco2)csc1=Nc1cccnc1,"inconclusive: 20 µM [inhibitor, partial curve]",
Cc1ccccc1C(=O)n1nc(-c2ccco2)nc1NCc1cccs1,,inactive: -16.9%
O=C(CNC(=O)c1ccc(F)cc1)N/N=C/c1ccc(O)c([N+](=O)[O-])c1,"inconclusive: 15.8 µM [inhibitor, partial curve]",
CCCCOc1ccccc1NC(=O)c1ccc(=O)[nH]c1,,inactive: -9.5%
CCOC(=O)c1c(NC(=O)/C=C/c2ccc(Cl)cc2)sc2c1CCC(C)C2 (stereo not given),"inconclusive: 20 µM [inhibitor, partial curve]",
CCOC(=O)c1c(C)oc2nc(C)nc(N3CCN(c4cccc(C(F)(F)F)c4)CC3)c12,,inactive: -17.8%
COc1cc(OC)c(-c2nc3ccccc3s2)cc1OC,"inconclusive: 15.8 µM [inhibitor, partial curve]",
CCOC(=O)c1cccc(NC(=O)CN2CCN(c3ccc(OC)cc3)CC2)c1,"inconclusive: 7.94 µM [inhibitor, partial curve]",
COCCn1c(N)c(C(=O)NCc2cccs2)c2nc3ccccc3nc21,"inconclusive: 15.8 µM [inhibitor, partial curve]",
